Measured values published in PubChem BioAssay AID1030 (National Center for Advancing Translational Sciences (NCATS), 2008).
About 16,000 (7.3%) of roughly 220,000 compounds were called active. Inconclusive means that the source gave no clear call. Such entries were picked first, then a sample of the others. Calls come from the whole dose curve; as a rule, active = well fitted inhibition curve with a large enough effect (not every such curve was filed as active); inconclusive = small, poorly fitted or top-dose-only effect, or another doubt; inactive = no such curve, though single readings can be large or run the other way. Potencies of inconclusive entries are left out as doubtful fits.

What follows are molecules tested against Aldehyde dehydrogenase 1A1 (Homo sapiens) (UniProt P00352) (assay: qHTS Assay for Inhibitors of Aldehyde Dehydrogenase 1 (ALDH1A1)). Settings: Purified ALDH1A1, NADH fluorescence, propionaldehyde substrate; series mostly up to 75.3 µM.
Sequence of UniProt P00352 (P00352 whole entry, looked up): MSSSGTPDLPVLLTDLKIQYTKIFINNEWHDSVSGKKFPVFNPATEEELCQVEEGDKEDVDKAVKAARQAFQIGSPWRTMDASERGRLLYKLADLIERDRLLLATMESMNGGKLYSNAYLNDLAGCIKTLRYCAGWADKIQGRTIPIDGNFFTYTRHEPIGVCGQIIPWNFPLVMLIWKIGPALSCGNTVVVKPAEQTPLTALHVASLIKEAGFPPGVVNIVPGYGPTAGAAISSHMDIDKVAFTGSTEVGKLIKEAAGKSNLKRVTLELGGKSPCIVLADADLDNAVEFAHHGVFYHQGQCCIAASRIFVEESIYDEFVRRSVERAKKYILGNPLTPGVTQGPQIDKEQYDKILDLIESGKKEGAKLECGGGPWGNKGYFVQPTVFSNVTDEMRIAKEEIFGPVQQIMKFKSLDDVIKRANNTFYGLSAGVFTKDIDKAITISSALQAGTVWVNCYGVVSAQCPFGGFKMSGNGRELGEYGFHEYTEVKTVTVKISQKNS
Potency is the fitted concentration of half-maximal effect; tags give direction and shape of the fitted curve.
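Throughout, for activity, negative = inhibition: plate controls were no enzyme wells and a reference inhibitor.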

Question: Which Potency does the source give for `CCN(CC)C(=S)Nc1cc(C(=O)OC)ccc1C(=O)OC` here?
Answer: inconclusive [inhibitor, partial curve]

Question: `O=C(NCCC1=CCCCC1)C(=O)NCc1ccncc1` was tested. Which Potency did it give?
Answer: inactive

Question: With `Cc1ccc2nc(/C=C/c3cccc(F)c3)ccc2c1` as the molecule, how does the Potency read?
Answer: inconclusive [inhibitor, single point]

Question: For `Cc1cn2c(nc(=O)c3cccnc32)s1`, which Potency is on record?
Answer: inconclusive [inhibitor, single point]

Question: How did the Potency turn out when `O=[N+]([O-])c1cc(-c2cnc3ccccc3n2)ccc1Oc1ccc(F)cc1` was run?
Answer: inconclusive [inhibitor, partial curve]

Question: Which Potency does the source give for `CC1CCN(C(=O)CSc2nc3[nH]ncc3c(=O)[nH]2)CC1` here?
Answer: active: 11.2 µM

Question: `Cc1ccc(/C=C/C(=O)Nc2ccncc2)o1` was tested. Which Potency did it give?
Answer: inconclusive [inhibitor, single point]

Question: `CCOC(=O)CNC(=O)CSc1nc(-c2ccccc2)ns1` was tested. Which Potency did it give?
Answer: active: 25.1 µM

Question: `Cc1cc(C)c(NC(=O)CN2C(=O)NC3(CCCCC3)C2=O)c(Cl)c1` was tested. Which Potency did it give?
Answer: inactive

Question: With `O=C(c1ccco1)n1c(=S)nc2ccccn21` as the molecule, how does the Potency read?
Answer: active: 20 µM

Question: With `COc1ccc(C(=O)N[C@H](C(=O)N2CCN(c3ccccc3F)CC2)C(C)C)cc1` as the molecule, how does the Potency read?
Answer: inconclusive [inhibitor, partial curve]

Question: Which Potency does the source give for `CCN(CC)CCNC(=O)c1ccc(NC(=O)/C=C/c2cc(OC)c(OC)c(OC)c2)cc1` here?
Answer: inconclusive [inhibitor, single point]

Question: How did the Potency turn out when `O=C(NNc1cc(Cl)cc(Cl)c1)c1cccs1` was run?
Answer: inconclusive [inhibitor, single point]

Question: How did the Potency turn out when `Cc1nc(N2CCOCC2)nc(N2CCCC2)c1[N+](=O)[O-]` was run?
Answer: inconclusive [inhibitor, partial curve]

Question: How did the Potency turn out when `CCOC(=O)C1CCN(C(=S)Nc2cccc(C)c2C)CC1` was run?
Answer: inconclusive [inhibitor, single point]

Question: For `CCC(=NCc1ccccc1)c1c(C(F)(F)F)[nH]n(-c2nc3ccccc3s2)c1=O`, which Potency is on record?
Answer: inactive

Question: For `O=C(/C=C/c1cccs1)Nc1nccs1`, which Potency is on record?
Answer: inconclusive [inhibitor, single point]

Question: How did the Potency turn out when `O=C(CSc1nnnn1-c1ccccc1)NCc1ccco1` was run?
Answer: inconclusive [inhibitor, single point]

Question: For `O=C(Nc1ccc2c(c1)oc1ccccc12)c1ccc2c(c1)OCO2`, which Potency is on record?
Answer: inconclusive [inhibitor, single point]

Question: For `O=C(N/N=C/c1c(Cl)[nH]c2ccccc12)c1sc2ccccc2c1Cl`, which Potency is on record?
Answer: inactive

Question: For `COc1cc(OC)cc(C(=O)NNC(=S)Nc2ccc(S(N)(=O)=O)cc2)c1`, which Potency is on record?
Answer: active: 11.2 µM

Question: For `Cc1cccc(Cn2c(SCCN3CCOCC3)nc3c2c(=O)n(C)c(=O)n3C)c1`, which Potency is on record?
Answer: inconclusive [inhibitor, single point]

Question: For `Cc1cccc(C)c1N1CCN(C(=O)N2CCCCC2)CC1`, which Potency is on record?
Answer: inconclusive [inhibitor, single point]

Question: How did the Potency turn out when `O=C(O)c1ccccc1N/C=C\[N+](=O)[O-]` was run?
Answer: inconclusive [inhibitor, partial curve]

Question: How did the Potency turn out when `O=c1c2[nH]c3ccccc3c2ncn1C1CCCCC1` was run?
Answer: inconclusive [inhibitor, partial curve]

Question: Which Potency does the source give for `Cc1c(C(=O)N2CCN(S(C)(=O)=O)CC2)oc2ccccc12` here?
Answer: inconclusive [inhibitor, partial curve]

Question: Which Potency does the source give for `Cc1cccn2c(=O)c3cc(C(=O)NCCN4CCOCC4)c(=N)n(CCc4ccccc4)c3nc12` here?
Answer: inconclusive [inhibitor, partial curve]

Question: With `COCc1[nH]nc2c1C1(C(=O)N(C)c3ccccc31)C(C#N)=C(N)O2` (configuration not stated) as the molecule, how does the Potency read?
Answer: inactive

Question: For `CN(C)C(CNC(=O)Cc1ccc([N+](=O)[O-])cc1)c1ccccc1` (configuration not stated), which Potency is on record?
Answer: inactive

Question: Which Potency does the source give for `NC(=O)c1c(N)sc2c1CCCC2` here?
Answer: active: 12.6 µM

Question: Which Potency does the source give for `Cc1ccc(O)c(C(=O)/C=C/c2ccc3c(c2)OCCCO3)c1` here?
Answer: inconclusive [inhibitor, single point]

Question: With `O=C(NNc1ccccc1Cl)C(O)(c1cccc(C(F)(F)F)c1)c1cccc(C(F)(F)F)c1` as the molecule, how does the Potency read?
Answer: inconclusive [inhibitor, single point]

Question: For `N#CC1=C2SCN(Cc3ccccc3)CN2C(=O)CC1c1ccc2c(c1)OCO2` (configuration not stated), which Potency is on record?
Answer: active: 7.94 µM

Question: With `CCOc1ccccc1-c1ccc(C(=O)O)o1` as the molecule, how does the Potency read?
Answer: inconclusive [inhibitor, partial curve]

Question: How did the Potency turn out when `CCOC(=O)C1=C(C)NC(=O)NC1c1ccccc1Cl` (configuration not stated) was run?
Answer: inactive

Question: For `Clc1ccc2nc(CN3CCCc4ccccc43)cn2c1`, which Potency is on record?
Answer: inconclusive [inhibitor, single point]

Question: Which Potency does the source give for `Cc1ccc(Cl)cc1N1CCN(C(=O)C(=O)N2CCCCC2)CC1` here?
Answer: inconclusive [inhibitor, single point]

Question: Which Potency does the source give for `O=C(O)c1cccc(Oc2ccccc2[N+](=O)[O-])c1` here?
Answer: inactive

Question: `CCCCC(c1nnnn1CCOC)N1CCN(CC)CC1` (configuration not stated) was tested. Which Potency did it give?
Answer: inactive

Question: For `Nc1c(C(=O)NCc2ccccc2)c2nc3ccccc3nc2n1CCCN1CCOCC1`, which Potency is on record?
Answer: inconclusive [inhibitor, partial curve]

Question: With `C=CCc1cccc(/C=N/n2cnnc2)c1O` as the molecule, how does the Potency read?
Answer: inconclusive [inhibitor, single point]

Question: How did the Potency turn out when `O=C(Oc1ccc(Cl)cc1)c1ccc(N2CCOCC2)c([N+](=O)[O-])c1` was run?
Answer: inconclusive [inhibitor, single point]

Question: Which Potency does the source give for `Cc1cc(C)c2c(N)c(C(=O)N3CCc4ccccc4C3)sc2n1` here?
Answer: inconclusive [inhibitor, partial curve]

Question: With `CN(C)c1ccc(-c2nnn(CC(=O)Nc3ccccc3N3CCOCC3)n2)cc1` as the molecule, how does the Potency read?
Answer: inconclusive [inhibitor, partial curve]

Question: With `Cn1c(=O)c2c(nc(Sc3ncccn3)n2Cc2ccccc2Cl)n(C)c1=O` as the molecule, how does the Potency read?
Answer: inconclusive [inhibitor, single point]

Question: Which Potency does the source give for `O=C(c1ccco1)N1CCC(c2nc(-c3ccccc3Cl)no2)CC1` here?
Answer: inconclusive [inhibitor, partial curve]

Question: With `Cc1ccnc(NC(=O)Nc2ccc3c(c2)N(C)C(=O)CS3)c1` as the molecule, how does the Potency read?
Answer: inconclusive [inhibitor, single point]

Question: `CC(=O)NC1C(=O)N(CCc2ccccc2)c2ccccc21` (configuration not stated) was tested. Which Potency did it give?
Answer: inconclusive [inhibitor, full curve]

Question: For `COc1ccc(CN2C(=O)c3ccccc3C2C(=O)NC2CCCC(C)C2C)c(OC)c1` (configuration not stated), which Potency is on record?
Answer: inactive

Question: With `O=C(Nc1c(C(=O)Nc2cccc3ccccc23)cnn1-c1ccccc1)c1ccco1` as the molecule, how does the Potency read?
Answer: inactive

Question: How did the Potency turn out when `Cc1ccc(C(=O)NCCSC(C)(C)C)cc1` was run?
Answer: inactive

Question: How did the Potency turn out when `Cc1ccc(/C=N/Nc2ccc3ccccc3n2)o1` was run?
Answer: inconclusive [inhibitor, single point]

Question: Which Potency does the source give for `COc1ccc(C(=O)CN2C(=O)NC(C)(c3ccc(C)cc3)C2=O)cc1OC` (configuration not stated) here?
Answer: inactive

Question: `Cc1cc(C)nc(NC(=O)Nc2ccccc2C(F)(F)F)n1` was tested. Which Potency did it give?
Answer: active: 35.5 µM

Question: Which Potency does the source give for `C[C@@H]1O[C@@H](OC[C@H]2O[C@@H](Oc3c(-c4cccc(O)c4O)oc4cc(O)cc(O)c4c3=O)[C@H](O)[C@@H](O)[C@@H]2O)[C@H](O)[C@H](O)[C@H]1O` here?
Answer: inconclusive [inhibitor, single point]

Question: For `Cc1cc(C)c2nc(SCC(=O)N3CC(=O)Nc4ccccc43)c(C#N)cc2c1`, which Potency is on record?
Answer: inconclusive [inhibitor, single point]

Question: `COC(=O)c1ccc(Oc2ccc(C(F)(F)F)cn2)cc1` was tested. Which Potency did it give?
Answer: inactive

Question: Which Potency does the source give for `Cc1cc(N2CCN(C(=O)c3ccco3)CC2)n2ncnc2n1` here?
Answer: inactive

Question: `Cn1c(=O)c2c(nc(Oc3ccccn3)n2C)n(C)c1=O` was tested. Which Potency did it give?
Answer: inactive

Question: `O=C(O)[C@H](CCc1ccccc1)N1C(=O)c2ccccc2C1=O` was tested. Which activity, negative = inhibition did it give?
Answer: inactive: -9.75% [at 13.5 µM]

Question: For `Cc1ccc(-c2nnc(N3CCOCC3)c3ccccc23)cc1S(=O)(=O)NCC1CCCO1` (configuration not stated), which Potency is on record?
Answer: inactive

Question: How did the Potency turn out when `c1ccc(Cn2c(-c3cncs3)nc3ccccc32)cc1` was run?
Answer: inconclusive [inhibitor, single point]

Question: For `CCCCc1n[nH]c(=S)n1Cc1ccc(C)cc1`, which Potency is on record?
Answer: inconclusive [inhibitor, single point]

Question: How did the Potency turn out when `COc1ccc(-c2nnc(-c3cccnc3)o2)cc1` was run?
Answer: inconclusive [inhibitor, partial curve]

Question: With `Cc1ccc2cc(CN(Cc3ccc4c(c3)OCO4)Cc3nnnn3Cc3ccco3)c(=O)[nH]c2c1` as the molecule, how does the Potency read?
Answer: active: 14.1 µM

Question: For `O=c1cc(CSc2nnc(-c3cccs3)n2Cc2ccccc2)nc2sc3ccccc3n12`, which Potency is on record?
Answer: active: 7.94 µM

Question: Which Potency does the source give for `COCc1cc(=O)n2[nH]c(-c3ccccc3)cc2n1` here?
Answer: inconclusive [inhibitor, single point]

Question: Which Potency does the source give for `Cc1cc(C)cc(NC(=O)CSc2nnc(-c3ccccc3C)o2)c1` here?
Answer: inactive

Question: `Clc1cc(Cl)c2nc(N3CCCCC3)sc2c1` was tested. Which Potency did it give?
Answer: active: 22.4 µM

Question: `O=C(NCc1ccccc1)c1ccc(Cc2nc3ccccc3[nH]2)cc1` was tested. Which Potency did it give?
Answer: inactive

Question: `NC(=O)C/C=C\CC(N)=O` was tested. Which activity, negative = inhibition did it give?
Answer: inactive: -16.3% [at 13.5 µM]

Question: `Cc1cc(N/N=C/c2ccc(O)cc2O)nc(N2CCOCC2)n1` was tested. Which Potency did it give?
Answer: inactive

Question: How did the Potency turn out when `CCOc1ccc(NC(=O)CC2C(=O)N(CC)C(=S)N2CCNC(C)=O)cc1` (configuration not stated) was run?
Answer: inactive

Question: With `c1ccc(-c2nnc3sc(Cc4cccs4)nn23)cc1` as the molecule, how does the Potency read?
Answer: inactive

Question: For `CCN(CC)S(=O)(=O)c1ccc(C(=O)N(c2ccccc2)C2C=CS(=O)(=O)C2)cc1` (configuration not stated), which Potency is on record?
Answer: inactive

Question: With `CC1=NC(C)(C)Cc2c(C)cccc21` as the molecule, how does the Potency read?
Answer: inconclusive [inhibitor, single point]

Question: `CN(Cc1cn(-c2ccccc2)nc1-c1ccc(Cl)cc1)C(=O)CCC(=O)O` was tested. Which Potency did it give?
Answer: inactive
